Experimental findings from PMC6919601, “Identification of Plasmodium dipeptidyl aminopeptidase allosteric inhibitors by high throughput screening” (PLoS ONE, 2019) are described below.

The campaign covered roughly 110,000 compounds. About 230 (0.21%) showed an effect of 50% or more. The list shows a part of the results.
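Note: 30 min substrate incubation versus DMSO and 10 µM JCP410 controls.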

Sequence of DPAP1 (Q8IIJ9 whole entry, looked up): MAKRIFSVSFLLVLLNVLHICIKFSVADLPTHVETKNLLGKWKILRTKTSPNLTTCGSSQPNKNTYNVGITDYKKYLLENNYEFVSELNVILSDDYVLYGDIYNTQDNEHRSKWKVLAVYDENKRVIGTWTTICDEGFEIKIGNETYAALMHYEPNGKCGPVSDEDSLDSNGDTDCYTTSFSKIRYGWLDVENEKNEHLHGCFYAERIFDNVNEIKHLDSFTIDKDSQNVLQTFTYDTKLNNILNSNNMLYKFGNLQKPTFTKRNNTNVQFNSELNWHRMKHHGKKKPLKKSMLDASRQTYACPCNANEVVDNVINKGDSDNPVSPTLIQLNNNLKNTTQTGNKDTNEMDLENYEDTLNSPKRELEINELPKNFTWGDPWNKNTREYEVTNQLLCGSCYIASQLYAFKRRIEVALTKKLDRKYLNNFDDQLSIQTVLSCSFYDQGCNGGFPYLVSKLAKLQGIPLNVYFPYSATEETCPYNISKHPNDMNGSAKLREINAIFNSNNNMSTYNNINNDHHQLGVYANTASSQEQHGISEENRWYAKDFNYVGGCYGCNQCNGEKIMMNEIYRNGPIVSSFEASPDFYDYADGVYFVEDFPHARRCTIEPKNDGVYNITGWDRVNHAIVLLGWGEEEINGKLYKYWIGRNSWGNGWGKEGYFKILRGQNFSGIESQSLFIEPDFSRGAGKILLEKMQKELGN

This assay concerns the target DPAP1 (Plasmodium falciparum, UniProt Q8IIJ9). Kind of assay: primary screen, percent inhibition; read by cleavage of a fluorogenic dipeptide substrate; higher = more effect of the substance. On the set-up: species or system P. falciparum D10 trophozoite lysates; single well.
For the compound `COc1nc(N(C)C)nc(-n2cc(-c3ccccc3)nn2)n1`, the “% Inhibition @ 10 uM” value was -0.403%. As for `COc1ccc(NC=C2C(=O)NC(=O)NC2=O)cc1OC`, the figure is 2.44%; as for `O=C(CN1Cc2ccccc2C1=O)NC1CCCCCC1`, -1.62%; as for `COc1ccc2c(c1OC)C(=O)N(c1ccc(Cl)c(Cl)c1)C2=O`, -2.98%. As for `CCN(CC)S(=O)(=O)c1ccc2ncc(C(=O)NCCCN3CCCCC3C)c(O)c2c1` (centres unmarked), the figure is 0.955%; as for `CS(=O)(=O)[C@]1(Cc2ccccc2)[C@@H]2OCCC[C@@H]2S1(=O)=O`, 7.76%; as for `CCOc1ccc(CCNC(=O)C2CCN(S(=O)(=O)N3CCC(C)CC3)CC2)cc1OCC`, -1.34%. As for `COc1ccc(S(=O)(=O)NC(C(C)C)C(C)C)cc1OC`, the “% Inhibition @ 10 uM” value was -3.72%. For `OC(CSc1ccccc1)CN1CCCCC1` (centres unmarked), the “% Inhibition @ 10 uM” value is -1.05%. As for `Cc1ccc(CNC(=O)CSc2nc(-c3ccc4c(c3)OCO4)ccc2C#N)cc1`, the figure is -2.45%; as for `CCN(CC)S(=O)(=O)c1ccc(NC(=O)c2ccc(F)cc2)cc1`, -0.173%; as for `Cc1cccc(C(=O)NC(CC(=O)O)c2ccc(C(C)(C)C)cc2)c1` (centres unmarked), -0.703%.

`CCN(CCN(C)C)CC1=CC[C@H]2C[C@@H]1C2(C)C`: the “% Inhibition @ 10 uM” value worked out at 0.217%. As for `O=C(Nc1nccs1)c1cccc([N+](=O)[O-])c1C(=O)O`, the figure is -0.13%; as for `Cc1nn(C)c(C)c1CNC(=O)c1nn2c(c1Cl)NC(c1cccs1)CC2C(F)(F)F` (centres unmarked), -0.988%. For the compound `CCOC(=O)c1sc2ccccc2c1NC(=O)c1ccc2c(c1)OCCO2`, the “% Inhibition @ 10 uM” value is given as 20.4%. Regarding `O=C(Nc1ccccc1C(=O)O)c1ccc(Br)c(S(=O)(=O)N2CCCCC2)c1`, the “% Inhibition @ 10 uM” value came to 9.02%.

`CCOC(=O)c1c(/N=C/C2C(=O)c3ccccc3C2=O)sc(C)c1C`: the “% Inhibition @ 10 uM” value is -5.01%. In the case of `Cc1ccc(NC(=O)c2c(-c3ccccc3Cl)noc2C)nc1`, the “% Inhibition @ 10 uM” value was -1.93%. As for `c1ccc(C2CC3CC4(CCCC4)N2O3)cc1` (centres unmarked), the figure is 1.52%; as for `Cc1ccc(C(=O)Nc2nc(-c3nnn(-c4cccc(C)c4C)c3C)ns2)cc1`, -7.04%.

Regarding `CC1=C(C(=O)Nc2ccccc2)C(c2cnn(C)c2C)n2c(s/c(=C/c3ccoc3)c2=O)=N1` (centres unmarked), the “% Inhibition @ 10 uM” value amounted to 0.389%. `CCOc1cc(/C=C2/NC(=O)N(Cc3ccccc3F)C2=O)c(Br)cc1OC`: the “% Inhibition @ 10 uM” value is -0.0626%. As for `c1cncc(CNCc2cccc3ccccc23)c1`, the figure is 3.99%. For the compound `CC(C)SC1=NSC2=NC(=O)/C(=C\c3c[nH]c4ccccc34)C(=N)N21`, the “% Inhibition @ 10 uM” value is -3.51%.

With `CC(=O)c1cccc(NC(=O)c2ccccc2C)c1`, the “% Inhibition @ 10 uM” value was found to be 3.13%. As for `COc1ccc(C(=O)O)cc1S(=O)(=O)NCc1ccccc1`, the “% Inhibition @ 10 uM” value is reported as 14.5%. As for `NC(=O)c1ccc(NC(=O)c2cc(C(F)(F)F)cc(C(F)(F)F)c2)cc1`, the figure is 4.99%; as for `CC(C)(C)c1ccc(CN(Cc2ccco2)S(=O)(=O)c2ccc(S(N)(=O)=O)cc2)cc1`, 6.92%. On to `CCC(Sc1nc(O)c2c(n1)CCC2)C(=O)NC1CCCCC1` (centres unmarked), for which the “% Inhibition @ 10 uM” value stood at 12%. As for `CCCOc1ccccc1C1C(C#N)=C(N)Oc2[nH]nc(-c3ccc4c(c3)OCO4)c21` (centres unmarked), the figure is -2.77%; as for `N#CC1=C(N)N(c2nc[nH]n2)C2=C(C(=O)CC(c3ccccc3)C2)C1c1cccc(Cl)c1` (centres unmarked), -4.6%; as for `Cc1ccccc1OCCCSCc1nc2ccccc2[nH]1`, -1.74%.

Consider `Cc1csc(NC(=O)C2c3ccccc3C(=O)N(CC(C)C)C2c2cccs2)n1` (centres unmarked), for which the “% Inhibition @ 10 uM” value was -4.07%. As for `CCOc1ccccc1N1CCN(C(=O)NC2CCCCC2)CC1`, the figure is -4.15%; as for `COc1cc2c(cc1OC)C(COc1cccc(C(F)(F)F)c1)N(C(=O)C(C)C)CC2` (centres unmarked), 4.79%. Take `CCCOC(=O)CSc1nc(C)c(C)c(C)c1C#N`: the “% Inhibition @ 10 uM” value was -3.03%. As to `Cc1nnc(O)nc1NCc1ccco1`, the “% Inhibition @ 10 uM” value is given as -4.93%. In the case of `O=C(c1cc2c(Cl)ccc3c2n1CCO3)N1CCC(N2CCCCC2)CC1`, the “% Inhibition @ 10 uM” value is -7.68%. On to `CCNc1nc2n(c(=O)n1)CCN2CC`, for which the “% Inhibition @ 10 uM” value is -2.48%. Regarding `O=C(CCCC(=O)NC1CCCCC1)NC1CCCCC1`, the “% Inhibition @ 10 uM” value is -5.96%. As for `Cc1ccccc1OC(C)C(=O)Nc1ccc2ccccc2c1` (centres unmarked), the “% Inhibition @ 10 uM” value is listed as 0.331%. As for `Cc1ccccc1OCCCCn1cnc2ccccc21`, the “% Inhibition @ 10 uM” value is recorded as -2.28%.

As to `CCOc1ccc(CCNC(=O)c2c(C)nn(-c3ccc(F)cc3)c2-n2cccc2)cc1`, the “% Inhibition @ 10 uM” value was -2.48%. As for `CC(C)N1C(=O)S/C(=C\c2cc3c(cc2Br)OCO3)C1=O`, the figure is 0.147%. As for `Cc1cccc(C)c1-n1c(C)cc(/C=C2\C(=N)N3N=C(N4CCOCC4)SC3=NC2=O)c1C`, the figure is 0.0579%; as for `Cc1ccccc1-c1nc(CSCC(=O)N2CCc3ccccc3C2)c(C)o1`, 3.99%. As for `CN1CCN(Cc2cccc(Cl)c2Cl)CC1`, the figure is 1.63%; as for `COc1ccccc1CNc1cnn(C23C[C@@H]4C[C@@H](CC(CC(=O)O)(C4)C2)C3)c(=O)c1Cl`, -1.59%; as for `Cc1csc2nc(-c3ccc(Br)cc3)cn12`, 4.23%. With `CC(=O)Nc1ccc(S(=O)(=O)Nc2ccc(S(=O)(=O)Nc3ccc(C)cc3C)cc2)cc1`, the “% Inhibition @ 10 uM” value was determined as 0.795%. As for `c1ccc(CN2CCCCCCC2)nc1`, the figure is -4.75%. As for `O=C(O)CCC(=O)N1N=C(c2ccco2)CC1c1ccco1` (centres unmarked), the figure is 0.472%. As to `CC1=C(C(=O)Nc2ccccc2C)C(c2cccs2)NC(=O)N1` (centres unmarked), the “% Inhibition @ 10 uM” value is reported as -15.9%.

With `Cc1sc2c(=O)n3c(nc2c1C(=O)NCc1ccccc1)CCCCC3`, the “% Inhibition @ 10 uM” value is reported as -1.65%. Take `Cc1ccc(-n2ncc(C(=O)NCc3cccnc3)c2C2CCN(C(=O)OC(C)(C)C)CC2)cc1`: the “% Inhibition @ 10 uM” value is given as -6.76%. For the compound `Cc1ccccc1Cn1c(CN2CCN(Cc3ccccc3)CC2)nc2c1c(=O)[nH]c(=O)n2C`, the “% Inhibition @ 10 uM” value is 24.9%. For `COc1cccc(-c2cc(C(=O)Nc3ccccc3C(N)=O)c3ccccc3n2)c1`, the “% Inhibition @ 10 uM” value is -1.79%. As for `Cc1cc(C)c(S(=O)(=O)Nc2ccc(N3CCOCC3)cc2)c(C)c1`, the figure is -2.63%; as for `COc1ccc(/N=c2\scc(-c3ccc(OC(F)F)cc3)n2CCO)cc1`, -3.39%. Turning to `Cc1ccc(-c2nn(CC(=O)NCc3ccccc3)c(=O)c3ccccc23)cc1`, the “% Inhibition @ 10 uM” value is given as 0.029%. As for `Cc1ccc(CSc2nc3nccnc3c(=O)n2Cc2ccccc2)cc1`, the figure is 1.1%; as for `COc1ccc(S(=O)(=O)N2CCN(C/C=C/c3ccccc3)CC2)cc1`, 1.87%; as for `CC(=O)N1CCN(Cc2ccc(F)cc2)CC1`, 7.1%.

Take `O=C1c2ccccc2C(=O)N1CCc1c[nH]c2ccccc12`: the “% Inhibition @ 10 uM” value is listed as -1.76%. Turning to `O=C(Nc1ccc(CN2CCOCC2)cc1)c1ccccc1F`, the “% Inhibition @ 10 uM” value is -3.95%.

Regarding `COC(=O)C1=CN(C)C=C(C(=O)OC)C1c1cccc(Oc2ccccc2)c1`, the “% Inhibition @ 10 uM” value is 4.99%. In the case of `Cc1cc(C)c(NC(=O)c2sccc2C)c(C)c1`, the “% Inhibition @ 10 uM” value is reported as -4.52%. As for `CN1CCN(C(=O)Cn2cccc2C(=O)c2ccccc2)CC1`, the figure is 1.15%; as for `Nc1c(C(=O)Nc2ccc3c(c2)OCO3)sc2nc(-c3ccc(F)cc3)ccc12`, 8.93%; as for `Fc1ccccc1N1CCN(C2N=CNc3sc4c(c32)CCCC4)CC1` (centres unmarked), -4.71%. In the case of `CCc1cc2c(cc1OC)OCC(c1ccc3c(c1)OCCO3)C2=O` (centres unmarked), the “% Inhibition @ 10 uM” value is -2.59%. With `COC(=O)c1c(NC(=O)c2ccccc2OC)sc(C)c1C`, the “% Inhibition @ 10 uM” value was determined as 38.9%. As for `COC(=O)c1cnn2c(O)cc(C3CCNCC3)nc12`, the figure is 4.01%; as for `COc1cccc2cc(-c3ccc([N+](=O)[O-])cc3)c(=O)oc12`, -4.5%. As for `CNC(=O)NC1OC(CO)C(O)C(O)C1O` (centres unmarked), the figure is 1.57%; as for `Cc1ccc(-c2nc(CS(=O)CC(=O)NCCN3CCOCC3)c(C)o2)cc1` (centres unmarked), 3.99%.

For the compound `COc1ccc(CCNC(=O)CSc2nc3cc(OC)c(OC)cc3c3nc(C)nn23)cc1OC`, the “% Inhibition @ 10 uM” value was -0.499%.

`CCc1nn(CC(=O)NCc2ccc(F)cc2)c(=O)c2cc3cc(F)ccc3n12`: the “% Inhibition @ 10 uM” value is given as -1.7%. As for `C=CCNc1nc(OC(C(F)(F)F)C(F)(F)F)nc(N2CCCCC2)n1`, the “% Inhibition @ 10 uM” value was 7.24%. Regarding `Cc1onc(-c2ccccc2Cl)c1C(=O)Nc1ccc(C(N)=O)cc1`, the “% Inhibition @ 10 uM” value is -1.2%.

As for `C=C(C)C(=O)OCCc1ccc(O)c(-n2nc3ccccc3n2)c1`, the “% Inhibition @ 10 uM” value was 2.45%. As for `COc1ccc(C(=O)C2=C(O)C(=O)N(CCCN(C)C)C2c2cccc(O)c2)cc1F` (centres unmarked), the “% Inhibition @ 10 uM” value is listed as -13.9%. Turning to `CCc1ccc(CNC(=O)c2ccc(CS(=O)(=O)Cc3ccccc3Cl)o2)cc1`, the “% Inhibition @ 10 uM” value was -5.43%. For `CC(C)CC(NC(=O)N1CCN(S(=O)(=O)c2ccc3ccccc3c2)CC1)C(=O)NCCCCNC(=O)OCc1ccccc1` (centres unmarked), the “% Inhibition @ 10 uM” value is on record as -2.35%. As for `O=C1c2cccc3cccc(c23)C(=O)C1c1ccccn1`, the figure is 3%; as for `COc1ccc2c(c1)Cc1sc(NC(=O)c3ccc(OC)c(Br)c3)nc1-2`, 4.84%.

In the case of `CCN(CC)CC#CC(CC)(CC)OC(C)=O`, the “% Inhibition @ 10 uM” value was -0.261%. As for `CCOC(=O)c1c(C)oc2ccc(OCC(=O)c3ccc(Br)cc3)cc12`, the figure is 1.37%; as for `CCOc1ccc(/C=C2/C=C(c3cc(OC)ccc3OC)OC2=O)cc1`, 4.74%; as for `CCN1C(=O)C2C3c4ccccc4C(C(=O)O)(c4ccccc43)C2C1=O` (centres unmarked), 11.5%. `CCSC(C)CC1CC(=O)c2c(oc(C)c(CC)c2=O)C1` (centres unmarked): the “% Inhibition @ 10 uM” value is on record as -0.233%. As to `CC1(C)CC(C)(c2ccc(O)cc2O)NC(=S)N1` (centres unmarked), the “% Inhibition @ 10 uM” value is on record as -6.06%. In the case of `CC1(C)CC2=NC(SC3C=CCCC3)=C(C#N)C(c3ccccc3)C2=C(O)C1` (centres unmarked), the “% Inhibition @ 10 uM” value was -0.261%. As for `Cc1ccc(N2CCN(Cc3ccoc3)CC2)cc1`, the figure is 4.68%; as for `COc1ccc(N(CC(=O)NC2CC2)S(=O)(=O)c2ccc(C)cc2)cc1OC`, 4.83%. As for `COc1ccc(-c2cccc(C(=O)N[C@@H](CC(C)C)C(=O)NCC#N)c2)cc1`, the figure is 2.87%. With `CCOC(=O)N1CCC(n2c(SCC(=O)c3ccc(Cl)cc3)nc3ccsc3c2=O)CC1`, the “% Inhibition @ 10 uM” value is listed as 0.0592%.
